Data taken from the antibiotic and cytotoxicity screens of Wong et al. (2023).
Some of the results follow.

Legend:
HSkMC = human skeletal muscle cells; assay: cytotoxicity call (relative viability < 0.9); conditions: 10 µM
HepG2 = assay: cytotoxicity call (relative viability < 0.9); conditions: 10 µM
S. aureus RN4220 = assay: growth inhibition call (relative growth <= 0.2); conditions: 50 µM

C[C@@H]1CN([C@H](C)CO)S(=O)(=O)c2ccc(C#CCN(C)C)cc2O[C@@H]1CN(C)C
inactive: cytotoxicity call (HSkMC) | cytotoxicity call (HepG2) | growth inhibition call (S. aureus RN4220)

OCCN1CCN(c2ncnc3c2ncn3[C@H]2CN(Cc3ccc(F)cc3)C[C@@H](CO)O2)CC1
inactive: cytotoxicity call (HSkMC) | cytotoxicity call (HepG2) | growth inhibition call (S. aureus RN4220)

COc1ccc(S(=O)(=O)Nc2cccc3c2O[C@@H](CN(C)S(=O)(=O)c2c(C)noc2C)[C@@H](C)CN([C@H](C)CO)C3=O)cc1
inactive: cytotoxicity call (HSkMC) | cytotoxicity call (HepG2) | growth inhibition call (S. aureus RN4220)

C[C@H](CO)N1C[C@H](C)[C@H](CN(C)S(C)(=O)=O)OCCCC[C@H](C)Oc2ccc(NC(=O)c3ccncc3)cc2C1=O
inactive: cytotoxicity call (HSkMC) | cytotoxicity call (HepG2) | growth inhibition call (S. aureus RN4220)

C[C@H](CO)N1C[C@H](C)[C@H](CN(C)C(=O)Nc2ccc(N3CCCCC3)cc2)OCc2cn(nn2)CCCC1=O
inactive: cytotoxicity call (HSkMC) | cytotoxicity call (HepG2) | growth inhibition call (S. aureus RN4220)

CS(=O)(=O)N1CCOC[C@]2(CN(C(=O)c3ccc[nH]3)CCO2)C1
inactive: cytotoxicity call (HSkMC) | cytotoxicity call (HepG2) | growth inhibition call (S. aureus RN4220)

NCCn1ncccc1=O
inactive: cytotoxicity call (HSkMC) | cytotoxicity call (HepG2) | growth inhibition call (S. aureus RN4220)

C[C@H]1CN([C@@H](C)CO)C(=O)c2cc(NS(=O)(=O)c3ccc(F)cc3)ccc2O[C@@H]1CN(C)Cc1ccc(Oc2ccccc2)cc1
inactive: cytotoxicity call (HSkMC) | cytotoxicity call (HepG2) | growth inhibition call (S. aureus RN4220)

Cc1cc(C(=O)Nc2cccc3c2O[C@H](CN(C)C(=O)Nc2ccccc2)[C@@H](C)CN([C@H](C)CO)C3=O)n(C)n1
inactive: cytotoxicity call (HSkMC) | cytotoxicity call (HepG2) | growth inhibition call (S. aureus RN4220)

C[C@@H]1CN([C@@H](C)CO)C(=O)c2cc(NC(=O)C3CCCCC3)ccc2O[C@@H](C)CCCCO[C@H]1CN(C)C(=O)CCC(F)(F)F
inactive: cytotoxicity call (HSkMC) | cytotoxicity call (HepG2) | growth inhibition call (S. aureus RN4220)

COC(=O)[C@H]1CCC(=O)[C@H](C(=O)OC)C1
inactive: cytotoxicity call (HSkMC) | cytotoxicity call (HepG2) | growth inhibition call (S. aureus RN4220)

Cc1noc(C)c1NC(=O)N(C)C[C@H]1Oc2c(NC(=O)c3cnccn3)cccc2C(=O)N([C@@H](C)CO)C[C@H]1C
inactive: cytotoxicity call (HSkMC) | cytotoxicity call (HepG2) | growth inhibition call (S. aureus RN4220)

C=CCOC(=O)[C@H]1[C@@H]2C(=O)O[C@@H](c3ccccc3)[C@@H](c3ccccc3)N2[C@@H](c2ccc(OCCOC(=O)[C@@H]3C[C@@H]4C(=O)NCC(=O)N4[C@@H]3c3cccc(OCCO)c3)cc2)[C@]12C(=O)Nc1ccccc12
inactive: cytotoxicity call (HSkMC) | cytotoxicity call (HepG2) | growth inhibition call (S. aureus RN4220)

COCC#Cc1ccc2c(c1)O[C@H](CN(C)C(=O)Nc1ccc(OC)cc1)[C@@H](C)CN([C@H](C)CO)S2(=O)=O
inactive: cytotoxicity call (HSkMC) | cytotoxicity call (HepG2) | growth inhibition call (S. aureus RN4220)

CO[C@H](CN(C)S(=O)(=O)c1cccc(Cl)c1)[C@@H](C)CN([C@@H](C)CO)S(=O)(=O)c1cccc(Cl)c1
inactive: cytotoxicity call (HSkMC) | cytotoxicity call (HepG2) | growth inhibition call (S. aureus RN4220)

Cc1ccc(S(=O)(=O)Nc2cccc3c2O[C@@H](CN(C)Cc2ccc(C(F)(F)F)cc2)[C@@H](C)CN([C@@H](C)CO)C3=O)cc1
inactive: cytotoxicity call (HSkMC) | cytotoxicity call (HepG2) | growth inhibition call (S. aureus RN4220)

COc1ccc(NC(=O)N(C)C[C@H]2OCCCC[C@@H](C)Oc3ccc(NS(=O)(=O)c4ccc(F)cc4)cc3C(=O)N([C@@H](C)CO)C[C@@H]2C)cc1
inactive: cytotoxicity call (HSkMC) | cytotoxicity call (HepG2) | growth inhibition call (S. aureus RN4220)

C[C@H](CO)N1C[C@H](C)[C@@H](CN(C)S(=O)(=O)c2ccc(F)cc2)OCCCC[C@H](C)Oc2ccc(NC(=O)Nc3ccc(F)cc3)cc2C1=O
inactive: cytotoxicity call (HSkMC) | cytotoxicity call (HepG2) | growth inhibition call (S. aureus RN4220)

C[C@H](N[C@@H](CCc1ccccc1)C(=O)O)C(=O)N1CCC[C@H]1C(=O)O
inactive: cytotoxicity call (HSkMC) | cytotoxicity call (HepG2) | growth inhibition call (S. aureus RN4220)

COc1ccc(NC(=O)N(C)C[C@@H]2OCCCC[C@@H](C)Oc3ccc(NS(=O)(=O)c4cccs4)cc3C(=O)N([C@@H](C)CO)C[C@H]2C)cc1
inactive: cytotoxicity call (HSkMC) | cytotoxicity call (HepG2) | growth inhibition call (S. aureus RN4220)

C[C@@H]1CN([C@H](C)CO)C(=O)Cc2cc(NS(=O)(=O)c3ccc(F)cc3)ccc2O[C@H]1CN(C)S(C)(=O)=O
inactive: cytotoxicity call (HSkMC) | cytotoxicity call (HepG2) | growth inhibition call (S. aureus RN4220)

C[C@H](CO)N1C[C@H](C)[C@@H](CN(C)S(=O)(=O)c2cccs2)Oc2ccc(NS(=O)(=O)c3cccs3)cc2C1=O
inactive: cytotoxicity call (HSkMC) | cytotoxicity call (HepG2) | growth inhibition call (S. aureus RN4220)

Cc1n[nH]c(C)c1CC(=O)O
inactive: cytotoxicity call (HSkMC) | cytotoxicity call (HepG2) | growth inhibition call (S. aureus RN4220)

C[C@H](CO)N1C[C@H](C)[C@H](CN(C)Cc2ccc(Oc3ccccc3)cc2)Oc2c(NS(=O)(=O)c3cccs3)cccc2C1=O
inactive: cytotoxicity call (HSkMC) | cytotoxicity call (HepG2) | growth inhibition call (S. aureus RN4220)

CS(=O)(=O)Cc1nc2ccccc2oc1=O
inactive: cytotoxicity call (HSkMC) | cytotoxicity call (HepG2) | growth inhibition call (S. aureus RN4220)

COCC(=O)N[C@H]1C=C[C@H](CC(=O)N2CCCCC2)O[C@H]1CO
inactive: cytotoxicity call (HSkMC) | cytotoxicity call (HepG2) | growth inhibition call (S. aureus RN4220)
